# Substitutions are numbered along the chain they refer to. Names may count otherwise. These are yes or no findings as the source states them, for the method shown. Some binding calls cover weakened binding; strength is not graded here.
# The chains behind the UniProt entries cited, without tags or fusion partners.
# UniProt Q01892: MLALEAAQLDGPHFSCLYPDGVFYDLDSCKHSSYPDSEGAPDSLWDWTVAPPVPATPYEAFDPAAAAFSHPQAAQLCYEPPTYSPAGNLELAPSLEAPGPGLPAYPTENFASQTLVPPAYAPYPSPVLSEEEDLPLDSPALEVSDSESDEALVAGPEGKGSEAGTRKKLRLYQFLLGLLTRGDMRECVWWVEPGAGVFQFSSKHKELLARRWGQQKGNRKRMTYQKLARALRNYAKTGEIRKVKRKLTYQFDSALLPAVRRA
# T1: BATF/JUNB (human) (UniProt Q16520+P17275)
# T1 sequence 1: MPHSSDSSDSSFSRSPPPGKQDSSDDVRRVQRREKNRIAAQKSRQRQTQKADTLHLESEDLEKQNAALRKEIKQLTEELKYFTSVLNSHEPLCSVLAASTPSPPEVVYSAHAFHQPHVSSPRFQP
# T1 sequence 2: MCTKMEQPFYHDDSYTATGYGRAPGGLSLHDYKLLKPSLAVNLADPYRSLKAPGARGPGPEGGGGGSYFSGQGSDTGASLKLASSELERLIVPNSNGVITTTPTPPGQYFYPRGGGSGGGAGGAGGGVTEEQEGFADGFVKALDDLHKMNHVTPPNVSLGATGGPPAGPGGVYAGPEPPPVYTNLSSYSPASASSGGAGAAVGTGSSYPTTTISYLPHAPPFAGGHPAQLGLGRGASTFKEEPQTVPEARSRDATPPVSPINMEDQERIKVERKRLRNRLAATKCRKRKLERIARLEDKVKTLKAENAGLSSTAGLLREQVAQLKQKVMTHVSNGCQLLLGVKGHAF
# T2: IRF1 (human) (UniProt P10914)
# T2 sequence: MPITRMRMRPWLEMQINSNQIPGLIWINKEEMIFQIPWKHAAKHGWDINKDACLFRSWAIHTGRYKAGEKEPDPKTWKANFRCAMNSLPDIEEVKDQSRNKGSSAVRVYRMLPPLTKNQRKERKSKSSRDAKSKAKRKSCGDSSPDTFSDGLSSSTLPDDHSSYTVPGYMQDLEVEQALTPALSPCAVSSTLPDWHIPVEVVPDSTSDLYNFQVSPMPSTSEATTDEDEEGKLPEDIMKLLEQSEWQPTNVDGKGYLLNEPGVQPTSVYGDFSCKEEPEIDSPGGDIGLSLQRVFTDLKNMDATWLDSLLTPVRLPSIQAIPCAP
# B1: interferon regulatory factor 8 (IRF8), wild type (protein, UniProt Q02556 1-426)
# chain: MCDRNGGRRLRQWLIEQIDSSMYPGLIWENEEKSMFRIPWKHAGKQDYNQEVDASIFKAWAVFKGKFKEGDKAEPATWKTRLRCALNKSPDFEEVTDRSQLDISEPYKVYRIVPEEEQKCKLGVATAGCVNEVTEMECGRSEIDELIKEPSVDDYMGMIKRSPSPPEACRSQLLPDWWAQQPSTGVPLVTGYTTYDAHHSAFSQMVISFYYGGKLVGQATTTCPEGCRLSLSQPGLPGTKLYGPEGLELVRFPPADAIPSERQRQVTRKLFGHLERGVLLHSSRQGVFVKRLCQGRVFCSGNAVVCKGRPNKLERDEVVQVFDTSQFFRELQQFYNSQGRLPDGRVVLCFGEEFPDMAPLRSKLILVQIEQLYVRQLAEEAGKSCGAGSVMQAPEEPPPDQVFRMFPDICASHQRSFFRENQQITV
# B2: interferon regulatory factor 8 (IRF8) R291Q (protein, UniProt Q02556 1-426)
# chain: B1 chain with R291Q
# B3: interferon regulatory factor 8 (IRF8) R83C (protein, UniProt Q02556 1-426)
# chain: B1 chain with R83C
# Biological target: T1, BATF/JUNB (human)
# Assay: native gel or EMSA; nuclear extracts of HeLa cells transfected with IRF8 WT, R83C or R291Q mixed with extracts containing the cofactor; 32P end-labelled double-stranded DNA probe (PSMB8 EICE, TAPASIN ISRE or IL10 AICE), poly(dI:dC), 30 minutes at room temperature; the IRF8/cofactor complex is seen on the DNA probe
row,binding,Binder
1,binds,B1
2,binds,B2
3,no binding,B3

# Biological target: T2, IRF1 (human)
# Assay: as above
row,binding,Binder
1,binds,B1
2,no binding,B2
3,no binding,B3

# Biological target: Spi-B transcription factor (SPIB) (human) (UniProt Q01892)
# Assay: as above
row,binding,Binder
1,binds,B1
2,no binding,B2
3,no binding,B3

# From publication PMC5986711
